According to the RNAGym collection of RNA variant scans (doi:10.1073/pnas.2313332121):
Variants at the floor of the assay are shown more often than the library holds them.

B1: TPR 5TU (parent)
chain: GGAUCUUCUCGAUCUAACAAAAAAGACAAAUCUGCCACAAAGCUUGAGAGCAUCUUCGGAUGCAGAGGCGGCAGCCUUCGGUGGCGCGAUAGCGCCAACGUUCUCAACUAUGACACGCAAAACGCGUGCUCCGUUGAAUGGAGUUUAUCAUG

Variants of: B1
Assay: polymerase ribozyme fitness, log enrichment relative to wild type (log ratio); higher = more active; in vitro selection for triplet polymerase activity
In short: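 For each subunit of a heterodimeric triplet polymerase ribozyme, a mutant library was built by PCR and transcribed, then taken through a single in vitro selection round in triplicate. Selection involved annealing to a biotinylated primer, the partner subunit and triplets, incubation frozen at −7 °C, gel excision of extended constructs, capture on streptavidin beads and RT-PCR. Genotypes were retained after Illumina sequencing of inputs and outputs only with ≥10 input reads and ≥1 read in each output. Fitness is defined as the logarithm of a genotype's enrichment relative to wild-type enrichment, using inverse-variance-weighted averages across replicates, with the logarithm taken to base 2.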

Polymerase ribozyme fitness (log ratio), ≤ -4.2:
GGAUCUUCUCGAUCUAACAAAAAAGACAAAUCUGCCACAAGGCUUGAGAGCAUCUUCGGAUGCAGAGGCGGCAACCUUCGGUGGCGCGAUAGCGCCAACGUUCUCAACUACGACACGCAAAACGCGUGCUCCGUUGAAUGGAGUUUAUCAUG [A41G G74A U111C]
GGAUCUUCUCGAUCUAACAAAAAAGACAAAUCUGCCACAACGCUUGAGAGCAUCGUCGGAUGCAGAGGCGGCAGCCUUCGGUGGCGGGAUAGCGCCAACGUUCUCAACUAUGACACGCAGAACGCGAGCUCCGUUGAAUGGAGUUUAUCAUG [A41C U55G C87G A120G U127A]
GGAUCUUCUCGAUCUAACAAAAAAGACAAAUCUGCCACAAGGCUUGAGAGCAUAGUCGGAUGCAGAGGCGGCCGCCUUCGGUGGCGCUAUAGCGCCAACGUUCUCAACUAUGACACGCAAAACGCGUGCUCCGUUGAAUGGAGUUUAUCAUG [A41G C54A U55G A73C G88U]
GGAUCUUCUCGAUCUAACAAAAAAGACAAAUCUGCCACAAUGCUUGAGCGCAUAUUGGGAUGCUGAGGCGGCAGCCUUCGCUGGUGCGAUAGGGCCAACGUUCUCAACUAUGACACGCAAAACGCGUGCUCCGUUGAAUGGAGUUUAUCAUG [A41U A49C C54A C57G A64U G81C C85U C93G]
GGAUCUUCUCGAUCUAACAAAAAAGACAAAUCUGCCACAAGGCAUGAGAGUAUCUUCGGAUGCAGAGGCGGCAGCCUUCGGUGGCGUGAUAGCGCCAACGUUCUCUGCUAUGACACGCAAAACGCGUGCUCCGUUGAAUGGAGUUUAUCAUG [A41G U44A C51U C87U A106U A107G]
GGAUCUUCUCGAUCUAACAAAAAAGACAAAUCUGCCACAAGGCUUGAGAGCAUCUUCGGAUGCAGAGGCGGCAGCCUUCGGUGGCGAGAUAGCGCCAACGUUCUCUACUAUGACACGCAAAACGCGUGCUCCGUUGAAUCUAGUUCAUCAUG [A41G C87A A106U G140C G141U U146C]
GGAUCUUCUCGAUCUAACAAAAAAGACAAAUCUGCCACAAGGCUUGAGAGCAUCUUCGGAUGCAGAGGCGGCAGCCUUGGCUGGCGCGAUAGCGCCAACGUUCUCAACUAUGACACGCAGAACGCGUGCUCCGUUGAAUGGAGUUUAUCCUG [A41G C79G G81C A120G A150C]
GGAUCUUCUCGAUCUAACAAAAAAGACAAAUCUGCCACAAGGCUUGAGAGCAUCUUCGGAUGCAGAGGCGGCAGCAUUCUGUGGCGCGAUAGCGCUAACGUUCUCAACUAUGAUACGCAAAACGCGUGCUCCGUUGAAUGGAGUAUAUCAUG [A41G C76A G80U C96U C114U U145A]
GGAUCUUCUCGAUCUAACAAAAAAGACAAAUCUGCCACAAUGCUUGAGAACAUCUUCGGAUGCAGAGGAGGCAGCCUUCGGUUGCGCGAUAGCGCCAACGUUCUCAACUAUGACACGCAAAACGCGUGCUCCGUUGAAUGGAGUUUAUCAUG [A41U G50A C69A G83U]
GGAUCUUCUCGAUCUAACAAAAAAGACAAAUCUGCCACAAGGCUAGAGAGCAUCUUCGGAUGCAGAGGCGGCAGCCUUCGGUGGCGAGAUAGCGCCAACGUUCUCAACGAUGACACGCAAAACGGGUGCUCCGUUGAAUGGAGUUUAUCAAG [A41G U45A C87A U109G C125G U151A]
GGAUCUUCUCGAUCUAACAAAAAAGACAAAUCUGCCACAAUGUUUGAGAGCAUCUACGGAAGCAGAGGCGGCAGCCUUCGGUGGCGCGAUAGCGCCAACGUUCUCAACUAUGACAAGCAAAACGCGUGCUCCGUUGAAUGGAGUUUAUCAUG [A41U C43U U56A U61A C116A]
GGAUCUUCUCGAUCUAACAAAAAAGACAAAUCUGCCACAAGGCUUGAGAGCAUCUUCGGAUGCAGAGGCGGCAGCCUUCGGUGGCGAGAUAGCGCCAACGUUCUCAACUAUGACACGCAAAACGCGUGCUCCGUUGAAUGGAGUUUAUCAUG [A41G C87A]
GGAUCUUCUCGAUCUAACAAAAAAGACAAAUCUGCCACAAUACUUGAGAGCAUCUUCGGAUGCAGAGGCGGCAGCCUUGGGUUGCGCGAUAGCGCCAACGCUCUCAACUAUGACACGCAAAACGCGUGCUCCGUUGAAUGGAGUUUAACUUG [A41U G42A C79G G83U U101C U148A A150U]
GGAUCUUCUCGAUCUAACAAAAAAGACAAAUCUGCCACAAGGCUAGAGAGCAUCUUCGGAUGCUGAGGCGGCAGCCUUUGGUGGCGCGAUAGCGCCAAAGUUCUCAACUAUGACACGCAAAGCGCGUGCUCCGUUGAAUGGAGUUUAUCAUG [A41G U45A A64U C79U C99A A122G]
GGAUCUUCUCGAUCUAACAAAAAAGACAAAUCUGCCACAAGGCUUGAGACCAUCUUCGGAUGCAGAGGCGGCAGACUUCGGUGACGCGAUAGCGCCAACGUUCUCAACUAUGACACGCAAAACGAGUGCUCCGUUGAAUCGGGUUUAUCAUG [A41G G50C C75A G84A C125A G140C A142G]
GGAUCUUCUCGAUCUAACAAAAAAGACAAAUCUGCCACAAUGCUUGAGCGCAUCUUCGGAUGCAGAGGCGGCAGCCUUCGGUGGCACGAUAGCGCCAACGUUCUCAACUAUGACACGCAAAACGCGUGCUCCGUUGAAUGGAUUUUAUCAUG [A41U A49C G86A G143U]
GGAUCUUCUCGAUCUAACAAAAAAGACAAAUCUGCCACAACGCUUGAGAGCAUCUUCGGAUGCAGAGGCGGCAGCCUCCGGUGGCGUGAUAGCACCAAGGUUCUCAACUAUGACACGCAAAACGCGUGCUCCGUUGAAUGGAGUUUAUCAUG [A41C U78C C87U G94A C99G]
GGAUCUUCUCGAUCUAACAAAAAAGACAAAUCUGCCACAAUGCUUGAGAGCUUCUUCGGAAGCAGAGGCGGCAGCCUUCGGUGGCGCGAUAGCGUCAACGUUCUCAAAUAUGACACGCAAAACGCGUGCUCCGUUGAAUGGAGUUUAUCAUG [A41U A52U U61A C95U C108A]
GGAUCUUCUCGAUCUAACAAAAAAGACAAAUCUGCCACAAUGCUUGAGAGCAUCUUCGGAUGCAGAGGCGGCGGCCUUCGGUAGCGCGAUAGCGCCAACGUUCUCAACUAUGACACGCAAAACGCGUGCUCCGUUGAAUGGAGGUUAUCGUG [A41U A73G G83A U144G A150G]
GGAUCUUCUCGAUCUAACAAAAAAGACAAAUCUGCCACAAUGCUUGAGAGCAUCUUCGGUUGCAGAGGCGGCAGCCUUCGGUCGCGCGAUAGCGUCAACGUUCUCAACUAUGACACGCAAAACGCGUGCUCCGUUGAAUGGAGUUUAUCAUG [A41U A60U G83C C95U]
GGAUCUUCUCGAUCUAACAAAAAAGACAAAUCUGCCACAACGCGUGAGAGCAUCUUCGCAUGCAGAGGCGGCGGCCUUCGGUGGCGCGAUAGUGCCAACGUUCUCAACUAUGACACGCAAAACGCGUGCUCCGUUGAAUGGAGUUUAUCAUG [A41C U44G G59C A73G C93U]
GGAUCUUCUCGAUCUAACAAAAAAGACAAAUCUGCCACAAGGCUUGAGAGCAUAUUCGGAUGCAGAGGCGGCAGCCCUCGGUGGCGCGAUAGGGCCAACGUUCUCAAUUAUGACACGCAAAACGCGUGCUCCGUUGAAUGGAAUUUAUCAUG [A41G C54A U77C C93G C108U G143A]
GGAUCUUCUCGAUCUAACAAAAAAGACAAAUCUGCCACAAGGCUUGAGAGCAUCUUCAGAUGCAGAGGCGGCAGCCUUCGGUGGCGCGAGAGCGCCAACGUUCUCAACUAUGACACGCAAAACGUGUGCUCCGUUGAAUGUAGUUUAUCAUG [A41G G58A U90G C125U G141U]
GGAUCUUCUCGAUCUAACAAAAAAGACAAAUCUGCCACAAGGCUUGAGAGCCUCUUCGGAUGCAGAGGCGGCAGCCUUCGGUGGGGCGAUUGCGCCAACGUUCUCAACUAUGACACGCAAAACGCGUCCUCCGUUGAAUGGAGUUUAUCAUG [A41G A52C C85G A91U G128C]
GGAUCUUCUCGAUCUAACAAAAAAGACAAAUCUGCCACAAGUCUUGAGAGCAUCUUCGGAUGCAGAGGCGGCUGCUUCCGGUGGGGCGAUAGCGUCAACGUUCUCAACUAUGACACGCCAAACGCGAGCUCCGUUGAAUGGAGUAUAUCAUG [A41G G42U A73U C76U U78C C85G C95U A119C U127A U145A]
GGAUCUUCUCGAUCUAACAAAAAAGACAAAUCUGCCACAAUGCUUGAGAGCAUCUUCGGAUGCAGAGGUGGCAGCCUUCGGUGGCGUGAUAGCGCCAACGUUCUCAACUAUGACACGCAAAACGCGUGCUCCGUUGAAUGGAGUUUAUAAUG [A41U C69U C87U C149A]
GGAUCUUCUCGAUCUAACAAAAAAGACAAAUCUGCCACAAGGCUUGAUAGCCUCUUCGGAUGCAGAGGCGGCAGCCUUCGGUGGCGCAAUAGCGCCAAUGUUCUCAACUAUGACACGCAAAACGCGUGCUCCGUUAAAUGGACUUUAUCAUG [A41G G48U A52C G88A C99U G136A G143C]
GGAUCUUCUCGAUCUAACAAAAAAGACAAAUCUGCCACAAUGCUUGAGAGCAUCUUCGGAUGCAGAGGCGGCAGCAUUCGGUGGCGAGAUAGCGCCAACGUUCUCAAUUAUGACACGCAAAACGCGUGCUCCGUUGAAUGGAGUUUAUCAUG [A41U C76A C87A C108U]
GGAUCUUCUCGAUCUAACAAAAAAGACAAAUCUGCCACAAUGCUUGAGAGUAUCUUCGGAUGCAGAGGCGGCAGCCUUCGGUCGCGCGAUAGCGCUAACGUUCUCAACUAUGACACGCAAAACGCGUGCUCCGUUGAAUGGUGUUUAUCAUG [A41U C51U G83C C96U A142U]
GGAUCUUCUCGAUCUAACAAAAAAGACAAAUCUGCCACAAGGCUUGAGAGCAUCUUCGGAUGCAGAGGCGCCAGCCUUCGGUGGCGCGAUAGCACCAACGUUCUCAAAUAUGACACGCAAAACGCGUGCUCCGUUGAAUGGAGUUUAUCCUG [A41G G71C G94A C108A A150C]
GGAUCUUCUCGAUCUAACAAAAAAGACAAAUCUGCCACAAUGCUUGAGAGCAUCUUCGGAUGCAGAGGCGGCAGCCUUCGGUGGCGCGAUAGCGCCAACGUUCUCAACUAUGUCACGCAAAACCCGUGCUCCGUUGAAUGGAGUUUAUCAUG [A41U A113U G124C]
GGAUCUUCUCGAUCUAACAAAAAAGACAAAUCUGCCACAAGGCUUGAGAGCAUCUUCGGAUGCAGAGACGGUAGCCUUCGAUGGCGCGAUAGCGCCAUCGUUCUCAACUAUGACACGCAAAACGCGUGCUCCGUUGAAUGGAUUUUAUCAUG [A41G G68A C72U G81A A98U G143U]
GGAUCUUCUCGAUCUAACAAAAAAGACAAAUCUGCCACAAGGCAUGAGAGCAUCUUCGGAAGCAGAGGCGGCAGCCUUCGGUGGCGCGGUACCGCUAACGUUCUCAACUAUGACACGCAAAACGCGUGCUCCGUUGAAUGGAGUUUAUCAUG [A41G U44A U61A A89G G92C C96U]
GGAUCUUCUCGAUCUAACAAAAAAGACAAAUCUGCCACAAGCCUUGAGAGCAUCUUCGGAUGCAGAGGCGGCAGCCUACGGUGGCGUGAUAGCGCCAACGUUCUCAACUAUGACACGCAAAACGCGGGCUCCGUUGAAUGGAAUAUAUCAUG [A41G G42C U78A C87U U127G G143A U145A]
GGAUCUUCUCGAUCUAACAAAAAAGACAAAUCUGCCACAAGGCUUGAGAGCAUUUUCGGAUGCAGACGCGGCAGCCUUCGGUGGUGCGAUAGCGCCAACGUGCUCAACUAUGACACGUAAAACGCGUGCUCCGUUGAAUGUAGUUUAUCAUG [A41G C54U G67C C85U U102G C118U G141U]
GGAUCUUCUCGAUCUAACAAAAAAGACAAAUCUGCCACAAGGCAUGAGAGCAUUUUCGGAUGCAGAGGCGGCAGCCUUCGGUGGCGCGAUAGCGCCAACGUUCUAGACUAUGACACGCAAAACGCGUGCUCCGUUGAAUGGAGUUUAUCAUG [A41G U44A C54U C105A A106G]
GGAUCUUCUCGAUCUAACAAAAAAGACAAAUCUGCCACAAGGCUUGAGAGCAUCUUCGGAUGCAGAGGCGGCAGCCUUCGGUAGCGCGAUAGCGCCAACGUUCUAAACUAUGACACGCAAAACGCGUGCUCGGUUGAAUGGAGUUUAUCUUG [A41G G83A C105A C132G A150U]
GGAUCUUCUCGAUCUAACAAAAAAGACAAAUCUGCCACAAUGCUUGAGAGCAUCUUCGGAUGCAGAGGCGGCAGCCUUCGGUGGCGCGAUAGAGUCAACGUUCUCAACUAUGACACGCAAAACGCGUGCUCCGUUGAAUUGAGUUUUUCAUG [A41U C93A C95U G140U A147U]
